# Measured values as given in PubChem BioAssay AID463173 (ICCB-Longwood Screening Facility, Harvard Medical School, 2010).
# Hit rate of the full screen: of about 52,000 compounds, about 4,300 (8.3%) were called active. Cut-off read from the data, not from the text of the source: active = survival mostly below about 52% (no sharp cut-off); inactive = mostly above about 56%. Some of the results follow.
# System: DeltatarO mutant
# Assay: growth inhibition of S. aureus wild type versus tarO mutant, primary screen, teichoic acid synthesis inhibitors, RN4220, OD600 (AID 463173)
# Settings: OD600, 18 h, hits give low values, screened at 18.75 µg/mL (by protocol)
row,Compound,survival
1,CC(C)(C)C(=O)Nc1ccc2nc(SCc3ccccc3)sc2c1,inactive: 70%
2,CC1=C(c2ccc(F)cc2)S(=O)(=O)NC1=NCc1ccccc1Cl,inactive: 107%
3,COc1ccc2cc(CNc3ccccc3)c(=O)n(CC(=O)Nc3ccc(C(C)=O)cc3)c2c1,inactive: 68%
4,Cc1ccccc1C(=O)NC(=O)Nc1ccc(-n2nc(C(F)(F)F)cc2C(F)(F)F)cc1,inactive: 69%
5,COc1cccc(CNC(=O)CCn2c(=O)c3cccn3c3cccnc32)c1,inactive: 82%
6,CCC(=O)N1CCc2cc(S(=O)(=O)NC(Cc3ccccc3)C(=O)NCc3cccc(OC)c3)ccc21 (stereo not drawn),inactive: 64%
7,COc1ccc(-c2cn3nc(N4CCCC(C(=O)NCCCOC(C)C)C4)sc3n2)cc1 (stereo not drawn),inactive: 69%
8,NCC1Cc2ccccc2O1 (stereo not drawn),inactive: 103%
9,Cc1ccc2c(c1)c1c(c(=O)n(-c3ccccc3C)c(=O)n1Cc1cccc(F)c1)n2C,inactive: 104%
10,Cc1ccc(Cl)cc1NC(=O)C(NS(=O)(=O)c1ccc2c(c1)CCC(=O)N2)c1ccccc1 (stereo not drawn),inactive: 71%
11,CC1=C(C(=O)Nc2ccc(C)cc2C)C(c2cccs2)n2nc(SCc3ccc(Cl)cc3)nc2N1 (stereo not drawn),inactive: 88%
12,Cc1cc(Oc2nc3ccccn3c(=O)c2/C=C(\C#N)c2nc3ccccc3s2)ccc1Cl,inactive: 63%
13,COc1ccc(-c2csc3ncnc(Nc4cccc(F)c4)c23)cc1,active: 0%
14,CC(=O)c1ccc(NC(=O)CC2Sc3ccccc3NC2=O)cc1 (stereo not drawn),inactive: 55%
15,Cc1ccc(CSc2nc3cccnc3n2Cc2ccc(C(=O)NCc3cccs3)cc2)cc1,inactive: 73%
16,Cc1ccc(Nc2nc(C(N)=O)c(NC(=O)c3ccccc3Br)s2)cc1,inactive: 78%
17,Cc1ccc(NC(=O)C2CCN(C(=O)c3cnn(-c4ccccc4)c3-n3cccc3)CC2)cc1Cl,inactive: 61%
18,CCCN(CCC)c1cc(C)nc2nc(-c3ccc(Cl)cc3)nn12,inactive: 52%
19,Cc1ccc(C(=O)CSc2nc(-c3ccccc3)nc3c2CCCC3)cc1C,active: 15%
20,COc1ccc(-n2nnnc2SCC(=O)N2CCCCC2C)cc1 (stereo not drawn),inactive: 92%
21,CCOC(=O)c1ccc(NC(=O)c2sc3nc4n(c(=O)c3c2C)CCC4)cc1,inactive: 116%
22,CCN1C(C(=O)c2ccccc2)=C(NC(=O)c2ccc(Cl)cc2)c2ccccc2S1(=O)=O,inactive: 91%

row,Compound,survival
1,O=C(NCc1ccccc1)N(Cc1cccnc1)Cc1cc2cc3c(cc2[nH]c1=O)OCCO3,inactive: 104%
2,CC(CNC(=O)Cn1c(-c2cccs2)cc2cc(Cl)ccc21)c1ccccc1 (stereo not drawn),inactive: 83%
3,ON(Cn1nnc2ccccc21)Cn1nnc2ccccc21,inactive: 102%
4,COCC(C)NS(=O)(=O)c1ccc(N2CCCCS2(=O)=O)cc1 (stereo not drawn),inactive: 87%
5,COc1cccc(NC(=O)c2oc3ccccc3c2NC(=O)c2ccc(OC(C)C)cc2)c1,inactive: 62%
6,COc1ccc2c(CNCCc3ccco3)c(C(=O)O)n(Cc3ccc(F)cc3)c2c1,inactive: 66%
7,CCn1cc(C(=O)NCc2ccc(Cl)cc2)c(=O)c2cc(S(=O)(=O)N3CCc4ccccc4C3)ccc21,inactive: 64%
8,Cc1ccc2c(CC(=O)Nc3c(C(=O)c4ccc(F)cc4)oc4ccccc34)coc2c1C,inactive: 90%
9,CC(C)c1ccc(NC(=O)C(Cc2ccccc2)n2cccc2)cc1 (stereo not drawn),active: 23%
10,CCOc1ccc(NC(=O)Cn2c(=O)n(CC(=O)NCCc3ccccc3)c(=O)c3sccc32)cc1,inactive: 71%
11,Cc1ccc(C)c(S(=O)(=O)c2cn(Cc3ccccc3)c3cc(N4CCCC4)c(F)cc3c2=O)c1,inactive: 97%
12,CC(=O)N1CCCc2cc(S(=O)(=O)Nc3ccc(OC(F)(F)F)cc3)ccc21,inactive: 79%
13,Cc1ccc(-n2ccn(CC(=O)c3ccc(F)cc3)c(=O)c2=O)cc1C,inactive: 69%
14,COc1cccc(C(=O)NCCc2sc(-c3cccc(C)c3)nc2C)c1,inactive: 83%
15,Cc1cccc(C)c1NC(=O)c1cc(S(=O)(=O)N2CCCc3ccccc32)ccc1F,inactive: 125%
16,COc1ccccc1C(=O)Nc1ccccc1C(=O)OCc1cc(=O)n2c(C)csc2n1,inactive: 126%
17,COC(=O)c1ccc(NC(=O)CC2C(=O)N(c3cccc(C)c3)C(=O)N2Cc2ccco2)cc1 (stereo not drawn),inactive: 92%
18,CCOC(=O)c1c(C)oc2nc(C)nc(NCCCN3CCN(c4ccccc4OC)CC3)c12,inactive: 81%
19,Cc1nn(C)c2c1c(-c1ccccc1)cc(=O)n2Cc1ccc(Br)cc1F,inactive: 94%
20,O=C(c1cc2ccccc2oc1=O)N1CCCC1,inactive: 101%
21,COc1cccc(C(=O)Nc2nc3nc(C)c(Cc4ccccc4)c(=O)n3[nH]2)c1,inactive: 104%
22,COc1ccccc1NC(=O)C1=C(C)NC2=C(C(=O)CCC2)C1c1cc2c(cc1Br)OCO2 (stereo not drawn),active: 44%

row,Compound,survival
1,Cc1cccc(N2C(=O)C(CC(=O)Nc3ccccc3)N(C3CCCCC3)C2=O)c1 (stereo not drawn),inactive: 80%
2,CCOC(=O)c1c(C)[nH]c(C)c1S(=O)(=O)N(C)CC(=O)N1CCN(c2cccc(C)c2C)CC1,inactive: 84%
3,COc1cccc(CNC(=O)C2CCCN(S(=O)(=O)c3ccc4c(ccn4C)c3)C2)c1OC (stereo not drawn),inactive: 101%
4,O=C(Cn1c(=O)n(CCCS(=O)(=O)C2CCCCC2)c(=O)c2ccccc21)Nc1ccccc1F,inactive: 83%
5,Cc1nn2c3c(cnc2c1-c1ccc(F)cc1)C(=O)CC(c1ccccc1)C3 (stereo not drawn),inactive: 66%
6,Cc1cc(C(=O)Nc2cccc(C(F)(F)F)c2)c2c(C)nn(-c3cccc(F)c3)c2n1,active: 17%
7,O=S(=O)(NCCc1csc2nc(-c3ccc(F)cc3)nn12)c1ccc2c(c1)OCCO2,inactive: 119%
8,CC(=O)Nc1ccc(NC(=O)CC(C)n2ccc(C)n2)cc1 (stereo not drawn),active: 52%
9,CCCN1CCN(CCNC(=O)Nc2cc(Cl)c(OC)cc2OC)CC1,inactive: 69%
10,Cc1cc(C)c(-c2csc(-c3cc4ccccc4oc3=O)n2)cc1C,active: 31%
11,Cc1ccc(OCC(=O)N(Cc2ccc(N(C)C)cc2)CC2CCCO2)cc1C (stereo not drawn),inactive: 59%
12,COc1ccc(-c2cc(C(F)(F)F)nc(SCC(=O)N3CCCCC3)n2)cc1,inactive: 74%
13,O=C(c1cccc([N+](=O)[O-])c1)N1c2nc(-c3ccco3)nn2C2(CCCCC2)[C@@H]2CCCC[C@@H]21,inactive: 54%
14,CCCCOc1ccc(NC(=O)c2cc3c(n(-c4ccc(Cl)cc4)c2=O)CCCC3=O)cc1,inactive: 131%
15,Cc1ccc(CNC(=O)CCCn2c(=O)c3ccccc3n(Cc3ccccc3Cl)c2=O)cc1,inactive: 113%
16,CC(=O)c1cccc(NC(=O)C2CCN(c3nnc(-n4cccc4)s3)CC2)c1,inactive: 80%
17,O=C1c2ccc(Oc3ccc4c(c3)C(=O)N(c3ncccn3)C4=O)cc2C(=O)N1c1ncccn1,inactive: 86%
18,Cc1cc2ccccc2nc1SCC(N)=O,inactive: 80%
19,CCOC(=O)c1c(-c2ccccc2)oc2ccc(OCc3ccc(C)cc3)cc12,active: 30%
20,Cc1ccccc1Cn1c(=O)n(CCCCC(=O)NCc2ccc3c(c2)OCO3)c(=O)c2ccccc21,inactive: 78%
21,Cc1cc2c(n1-c1ccc(C(=O)NCc3cccc(Br)c3)cc1)CCC(C)C2 (stereo not drawn),inactive: 125%
22,Cc1cccc(-c2nc3c4ccccc4n(CC(=O)Nc4cc(F)ccc4F)c(=O)n3n2)c1,inactive: 75%

row,Compound,survival
1,Cc1ccc(N2C(=O)CSC23C(=O)Nc2ccccc23)cc1F (stereo not drawn),inactive: 101%
2,O=C(Nc1nnc(N2CCCC2)s1)Nc1cc(F)ccc1F,inactive: 85%
3,O=C(NCCc1ccccc1)c1c2c(nc3ccccc13)C(=O)N(C1CCCCC1)C2,inactive: 92%
4,CCCCNC(=O)c1c[nH]c2c(F)cccc2c1=O,inactive: 81%
5,CC(C)Nc1cc(N2CCN(C3CCCCC3)CC2)c2noc3c2c1C(=O)c1ccccc1-3,inactive: 83%
6,COc1ccc(CCNc2nc(-c3ccccc3OC)cc(C(F)(F)F)n2)cc1OC,active: -8%
7,COc1ccccc1N1CCN(C(=O)CSc2nc(C)cc(=O)[nH]2)CC1,inactive: 74%
8,O=C(NCc1ccncc1)Nc1ccccc1,inactive: 109%
9,O=C(c1ccc(Br)cc1)N1CCC(c2nc3ccccc3s2)CC1,inactive: 99%
10,CCOc1ccc(CNC(=O)C(C)n2ncn3cccc3c2=O)cc1 (stereo not drawn),inactive: 69%
11,Cc1c(CN2CCOCC2)c(=O)n(-c2ccccc2)n1C,inactive: 87%
12,CCOC(=O)c1[nH]c(C)c(CCC(=O)Nc2ccc(C)cc2Cl)c1C,inactive: 83%
13,CCOc1ccccc1CNC(=O)C1=C(C)C(=O)OC12CCN(C(C)=O)CC2,inactive: 80%
14,CCOc1ccc(C(=O)Nc2c(C)nc(Nc3ccccc3)nc2Nc2ccccc2)cc1OCC,active: 49%
15,COc1ccc(C(=O)Cn2c(=O)n3nc(CCn4nc(C)cc4C)nc3c3cc(OC)c(OC)cc32)cc1,inactive: 107%
16,COc1ccc(S(=O)(=O)Nc2c(C)n(C)n(-c3ccccc3)c2=O)cc1Br,inactive: 60%
17,COc1ccc(C2(N3CCN(c4cc(C)ccc4C)CC3)C(=O)c3ccccc3C2=O)cc1,inactive: 91%
18,CCOc1ccccc1NC(=O)CSc1nc2cc(OC)c(OC)cc2c2nc(CCn3c(C)nc4ccccc43)nn12,inactive: 66%
19,CCCN(CCC)C(=O)Cn1c(SCc2cccc(F)c2)nc2cccnc21,inactive: 66%
20,N#Cc1cccc(NC(=O)C2CCN(S(=O)(=O)c3ccc4c(c3)CCCN4C(=O)C3CCC3)CC2)c1,inactive: 98%
21,Cc1ccc(-c2nc(CCNC(=O)C(=O)Nc3ccc(C)c(Cl)c3)cs2)cc1,inactive: 60%
22,CCOC(=O)c1sc(NC(=O)c2nc3nc(C)cc(C(F)F)n3n2)c(C(=O)OC(C)C)c1C,inactive: 73%
